Measurements as given in PubChem BioAssay AID1963576 (National Center for Advancing Translational Sciences (NCATS), 2024).
About 60 (0.1%) of roughly 46,000 compounds were called active. Not shown: some 3% with an inconclusive outcome. Calls come from the whole dose curve; as a rule, active = well fitted inhibition curve with a large enough effect; inconclusive = small, poorly fitted or top-dose-only effect; inactive = no such curve, though single readings can be large or run the other way. The list shows a part of the results.

Experiment: Primary qHTS assay for Inhibitors of ovarian cancer metastasis using an organotypic tumor microenvironment (TME) model.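 For activity change, negative = inhibition: plate controls were DMSO wells for no effect and tomatine positive control wells for full effect.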 Note: nearly all actives have a fitted effect of over 65% in size.
Conditions: SKOV3ip1-GFP adhesion/invasion on 3D omental model, fluorescence; series mostly up to 45.8 µM; activity change, negative = inhibition: at the top concentration
Outline: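 qHTS, 4-pt dose (0.36-46 umol/L); SKOV3ip1-GFP, 1,200 cells/well, no FBS; primary omental fibroblast/mesothelial co-culture 48 h pre-grown; 2 h RT + 16 h 37 C; PBS wash, 4% PFA; GFP count 488/509 nm.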

Activity change, negative = inhibition, inactive:
CCC(C)NC(=O)c1cccc(NC(=O)c2nsc3ccccc23)c1 (stereo not drawn) 0.71%
Cc1ccc(N(CC(=O)Nc2cccc(Cl)c2)S(=O)(=O)c2cccs2)cc1 4.87%
Cc1ccc(Cl)cc1N(C)C(=O)c1cn(C2CCCCC2)c(=O)c2c1c1ccccc1n2C 16.3%
CC(=O)C1=C(c2ccc(Cl)cc2)N(C(C)=O)n2c(nnc2C2CCCCC2)S1 -0.358%
Cc1ccc2c(c1)N(CCC(=O)NCc1ccccc1Cl)C(=O)CO2 5.3%
Cc1ccc2onc(CC(=O)Nc3ccc(C(C)C)cc3)c2c1 -6%
O=c1c2oc3ccccc3c2n(Cc2ccccc2F)c(=O)n1Cc1ccccc1 3.55%
Cn1c(=O)[nH]c(=O)c2c1nc(NCCc1ccccc1)n2Cc1ccc(F)cc1 1.1%
CC(=O)N1CCC(N(Cc2ccc(C)o2)C(=O)Nc2ccc(C)cc2)CC1 2.86%
COc1cc(NC(=O)c2cn(C3CCCC3)c(=O)c3c2c2ccccc2n3C)cc(OC)c1OC 22%
CCOc1ccccc1NC(=O)Cc1noc2ccc(C)cc12 -14.4%
CCOc1ccc2nc(NC(=O)c3nc(SC)ncc3Cl)sc2c1 -0.314%
Cn1cc(S(=O)(=O)N2CCOCC2)cc1C(=O)Nc1ccc(Cl)c(C(F)(F)F)c1 -8.95%
Cc1ccc(O)c(NC(=O)c2cc(-c3ccccc3O)no2)c1 -2.02%
Cc1cc(NC(=O)Nc2nnc(N(C)Cc3ccccc3)s2)ccc1Br -11.3%
COc1ccc2nc(N(Cc3cccnc3)C(=O)C3CCCCC3)sc2c1 -4.19%
CC1(C)C(=O)N(CC(=O)Nc2ccc(Br)cc2F)c2ccccc21 4.16%
COc1ccc(N2CCN(CCCNC(=O)Cn3c(-c4cccs4)cc4ccccc43)CC2)cc1 10.9%
CCOc1ccc(CNS(=O)(=O)c2ccc(-c3coc(C)n3)cc2)cc1 -6.74%
CCCCNC(=O)c1cccc(-n2c(C)nc3cccnc32)c1 4.64%
CCCCN(CC)CCCNC(=O)Nc1sc2nc3n(c(=O)c2c1C)CCC(C)CC3 (stereo not drawn) -7.51%
CC(NC(=O)C1CCN(c2nc3ccccc3nc2C(F)(F)F)CC1)c1ccccc1 (stereo not drawn) 96.7%
Cc1c(NC(=O)Nc2ccccc2C(F)(F)F)sc2nc3n(c(=O)c12)CCC(C)CC3 (stereo not drawn) -6.46%
CC(C)CCNC(=O)c1cnc2sc(N3CCCCC3)nn2c1=O 1.07%
COc1ccc(N(C(=O)c2cccc(C)c2)S(=O)(=O)c2ccc(Cl)cc2)cc1 0.833%
O=C(CCCCCn1c(=O)[nH]c2ccccc2c1=O)NCc1ccccc1 17.4%
O=C(C1CCCN(S(=O)(=O)c2cccc3nsnc23)C1)N1CCN(c2ccccc2Cl)CC1 (stereo not drawn) -9.35%
Cc1ccc(S(=O)(=O)c2nnn3c2nc(N2CCCC2)c2sccc23)cc1 -3.4%
COc1cccc(N2CCN(c3ncnc4onc(-c5ccc(F)cc5)c34)CC2)c1 4.46%
Cc1ccc(-c2nnc3c4ccccc4c(C)nn23)cc1NC(=O)c1ccccc1Cl -2.29%
Cc1ccc(C)c(NC(=O)CSC2=Nc3ccccc3N=C(c3ccc(F)cc3)C2)c1 -1.38%
CCC(=O)N1CCc2cc(S(=O)(=O)NC(Cc3ccccc3)C(=O)Nc3cccc(OC)c3)ccc21 (stereo not drawn) -0.0812%
Cc1cccc(N(C)c2ccc3cc(S(=O)(=O)N4CCCC4)ccc3n2)c1 -1.01%
Cc1nc2scc(C)n2c(=O)c1S(=O)(=O)N1CCN(c2cccc(C(F)(F)F)c2)CC1 1.93%
Cc1cc(C(=O)NCc2ccc(Cl)cc2)c2c(C)nn(-c3ccccc3)c2n1 8.24%
COc1ccc(N2CC(NC(=O)c3cc4ccccc4o3)CC2=O)cc1 (stereo not drawn) -14.6%
CC(=O)c1cc(-c2ccccc2)n(CCC(=O)Nc2ccc(C)cc2C)c1C -0.745%
CC1Cc2cc(S(=O)(=O)NCCc3ccccc3)ccc2N1C(=O)C1CCC1 (stereo not drawn) 11.6%
COc1ccc(CCC(=O)NCCc2csc(-c3ccc(C(F)(F)F)cc3)n2)cc1 -8.88%
Cc1ccc2c(c1)N(C(=O)Nc1cccc(C)c1C)CCO2 -4.28%
CC1CCC(N2CC(=O)N(C3CCCCC3)C(c3ccc(F)cc3)C2=O)CC1 (stereo not drawn) -5.95%
CS(=O)(=O)N1CCc2cc(C(=O)N3CCN(c4ccccc4)CC3)ccc21 -14%
Cc1cc(Br)ccc1NC(=O)c1ccc(NS(=O)(=O)c2c(C)noc2C)cc1 -0.308%
CCCC1=Nc2cc(C(=O)NCCc3ccccc3)ccc2Sc2ccc(C)cc21 8.83%
COc1ccccc1NC(=O)NCc1cccn1Cc1ccccc1 2.12%
CCOc1ccc(-c2nc(SCC(=O)NC3CCCC3)c(-c3ccccc3)[nH]2)cc1OC 6.13%

outcome, inactive:
CCN(Cc1ccccc1)S(=O)(=O)c1ccc2c(c1)CC(C)N2C(=O)C1CCC1 (stereo not drawn)
COc1cccc(CNC(=O)c2cc3c(=O)oc4ccc(C)cc4c3s2)c1
CCOc1ccc(OCC)c(NS(=O)(=O)c2ccc(-c3coc(C)n3)cc2)c1
COc1ccc(-c2nnc(SCc3cccc(Cl)c3)o2)cc1
Cn1cnc2c(=O)oc3ccc(S(=O)(=O)Nc4ccc(F)cc4)cc3c21
COc1cccc(C2C(C(=O)Nc3ccc(C)cc3C)=C(C)Nc3nc4ccccc4n32)c1OC (stereo not drawn)
CCOC(=O)c1cc(S(=O)(=O)N2CCN(c3ccccc3F)CC2)[nH]n1
Cc1nc2ccc(S(=O)(=O)N(C)CC(=O)Nc3cccc(C(F)(F)F)c3)cc2s1
CCOc1cc(C(=O)N2CCn3c4c(c5cc(C)ccc53)CCCC42)cc(OCC)c1OCC (stereo not drawn)
Fc1ccc2c(c1)-c1nc(-c3ccccc3)cc(-c3ccccc3)c1CO2
CCOC(=O)c1cc(S(=O)(=O)N2CCN(c3ccc(C)cc3C)CC2)[nH]n1
Cc1ccc2c(c1)c(N1CCCC1=O)c(C(=O)Nc1ccc(F)cc1F)n2C
CN(C)c1ccc(NC(=O)Cn2cc(S(=O)(=O)Cc3cccc(Cl)c3)c3ccccc32)cc1
COc1ccccc1CNC(=O)CCC1N=C2c3ccccc3N=C(SCc3ccc(C)cc3)N2C1=O (stereo not drawn)
COC(=O)c1c(NC(=O)Nc2ccc(Cl)cc2)sc(C)c1C
CCCc1nnc(NC(=O)c2cc(=O)c3cc(Cl)ccc3o2)s1
CCOc1ccc(NC(=O)/C=C\C(=O)N(c2ccc(C(C)C)cc2)C(C(=O)NCc2ccco2)c2ccc(F)cc2)cc1 (stereo not drawn)
